Assay results taken from the supplement of paper PMC11125491.
± gives the standard deviation of the averaged measurements. Growth of baker's yeast expressing single-residue variants of Pneumocystis jirovecii dihydrofolate reductase in 8.8 or 44 µM methotrexate (about 75% and 90% inhibition of the wild type). Selection coefficient per generation; 0 = like wild type, above 0 = less sensitive, below 0 = more sensitive or loss of function. No active / inactive call per row; the paper calls resistant above 0.220 (8.8 µM) or 0.243 (44 µM) together with a significance test. At 44 µM about 15% of codons end with one read or none, so the lowest values are floors (replicate rank correlation 0.74; 0.94 at 8.8 µM).

B1: UniProt A0EPZ9; numbered along this chain (parent)
chain: MDWQKSLTLIVALTLSRGIGLKNDLPWKLKSDMMFFSRVTSGLLVTRSTGQMNVVLMGRKTWESLPAHSRPLKNRINVVISRQEVLDLGGGAYHARSLDDALALLSQIYDSTSKIQLNRVFVIGGGELCKAAMEHSRLNRIIATVIHNEVDCDVFFPIDFRSSQSCLPWRKQDHSVLEAWVGSKVPQGKINENGFIYEFEMWIRDI

Variants of: B1
Assay: selection coefficient against synonymous wild-type codons (log2 per generation); higher = faster growth than wild type
Settings: with Saccharomyces cerevisiae carrying the variant on a plasmid
Method: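 Pooled growth of yeast carrying single-residue variants of P. jirovecii dihydrofolate reductase (own DFR1 gene intact), two passages at 30 °C, three cultures, sequenced before and after. Codons with under 15 starting reads are left out; codons of one change are averaged.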

Variant	selection coefficient against synonymous wild-type codons (log2) (methotrexate 8.8 µM)	selection coefficient against synonymous wild-type codons (log2) (methotrexate 44 µM)
MDWQKSLTLIVALTLSRGIGLKNHLPWKLKSDMMFFSRVTSGLLVTRSTGQMNVVLMGRKTWESLPAHSRPLKNRINVVISRQEVLDLGGGAYHARSLDDALALLSQIYDSTSKIQLNRVFVIGGGELCKAAMEHSRLNRIIATVIHNEVDCDVFFPIDFRSSQSCLPWRKQDHSVLEAWVGSKVPQGKINENGFIYEFEMWIRDI [D24H]	0.29 ± 0.085	0.261 ± 0.053
MDWQKSLTLIVALTLSRGIGLKNGLPWKLKSDMMFFSRVTSGLLVTRSTGQMNVVLMGRKTWESLPAHSRPLKNRINVVISRQEVLDLGGGAYHARSLDDALALLSQIYDSTSKIQLNRVFVIGGGELCKAAMEHSRLNRIIATVIHNEVDCDVFFPIDFRSSQSCLPWRKQDHSVLEAWVGSKVPQGKINENGFIYEFEMWIRDI [D24G]	-0.133 ± 0.081	-0.0628 ± 0.13
MDWQKSLTLIVALTLSRGIGLKNFLPWKLKSDMMFFSRVTSGLLVTRSTGQMNVVLMGRKTWESLPAHSRPLKNRINVVISRQEVLDLGGGAYHARSLDDALALLSQIYDSTSKIQLNRVFVIGGGELCKAAMEHSRLNRIIATVIHNEVDCDVFFPIDFRSSQSCLPWRKQDHSVLEAWVGSKVPQGKINENGFIYEFEMWIRDI [D24F]	-0.139 ± 0.045	-0.175 ± 0.16
MDWQKSLTLIVALTLSRGIGLKNILPWKLKSDMMFFSRVTSGLLVTRSTGQMNVVLMGRKTWESLPAHSRPLKNRINVVISRQEVLDLGGGAYHARSLDDALALLSQIYDSTSKIQLNRVFVIGGGELCKAAMEHSRLNRIIATVIHNEVDCDVFFPIDFRSSQSCLPWRKQDHSVLEAWVGSKVPQGKINENGFIYEFEMWIRDI [D24I]	-0.0997 ± 0.054	-0.0459 ± 0.13
MDWQKSLTLIVALTLSRGIGLKNCLPWKLKSDMMFFSRVTSGLLVTRSTGQMNVVLMGRKTWESLPAHSRPLKNRINVVISRQEVLDLGGGAYHARSLDDALALLSQIYDSTSKIQLNRVFVIGGGELCKAAMEHSRLNRIIATVIHNEVDCDVFFPIDFRSSQSCLPWRKQDHSVLEAWVGSKVPQGKINENGFIYEFEMWIRDI [D24C]	-0.203 ± 0.19	-0.104 ± 0.13
MDWQKSLTLIVALTLSRGIGLKNALPWKLKSDMMFFSRVTSGLLVTRSTGQMNVVLMGRKTWESLPAHSRPLKNRINVVISRQEVLDLGGGAYHARSLDDALALLSQIYDSTSKIQLNRVFVIGGGELCKAAMEHSRLNRIIATVIHNEVDCDVFFPIDFRSSQSCLPWRKQDHSVLEAWVGSKVPQGKINENGFIYEFEMWIRDI [D24A]	-0.0307 ± 0.066	0.0715 ± 0.1
MDWQKSLTLIVALTLSRGIGLKNELPWKLKSDMMFFSRVTSGLLVTRSTGQMNVVLMGRKTWESLPAHSRPLKNRINVVISRQEVLDLGGGAYHARSLDDALALLSQIYDSTSKIQLNRVFVIGGGELCKAAMEHSRLNRIIATVIHNEVDCDVFFPIDFRSSQSCLPWRKQDHSVLEAWVGSKVPQGKINENGFIYEFEMWIRDI [D24E]	-0.0236 ± 0.024	0.00268 ± 0.071
MDWQKSLTLIVALTLSRGIGLKNKLPWKLKSDMMFFSRVTSGLLVTRSTGQMNVVLMGRKTWESLPAHSRPLKNRINVVISRQEVLDLGGGAYHARSLDDALALLSQIYDSTSKIQLNRVFVIGGGELCKAAMEHSRLNRIIATVIHNEVDCDVFFPIDFRSSQSCLPWRKQDHSVLEAWVGSKVPQGKINENGFIYEFEMWIRDI [D24K]	-0.0915 ± 0.074	-0.0367 ± 0.12
MDWQKSLTLIVALTLSRGIGLKNNLPWKLKSDMMFFSRVTSGLLVTRSTGQMNVVLMGRKTWESLPAHSRPLKNRINVVISRQEVLDLGGGAYHARSLDDALALLSQIYDSTSKIQLNRVFVIGGGELCKAAMEHSRLNRIIATVIHNEVDCDVFFPIDFRSSQSCLPWRKQDHSVLEAWVGSKVPQGKINENGFIYEFEMWIRDI [D24N]	-0.219 ± 0.14	-0.0939 ± 0.17
MDWQKSLTLIVALTLSRGIGLKNMLPWKLKSDMMFFSRVTSGLLVTRSTGQMNVVLMGRKTWESLPAHSRPLKNRINVVISRQEVLDLGGGAYHARSLDDALALLSQIYDSTSKIQLNRVFVIGGGELCKAAMEHSRLNRIIATVIHNEVDCDVFFPIDFRSSQSCLPWRKQDHSVLEAWVGSKVPQGKINENGFIYEFEMWIRDI [D24M]	-0.289 ± 0.17	-0.186 ± 0.029
MDWQKSLTLIVALTLSRGIGLKNPLPWKLKSDMMFFSRVTSGLLVTRSTGQMNVVLMGRKTWESLPAHSRPLKNRINVVISRQEVLDLGGGAYHARSLDDALALLSQIYDSTSKIQLNRVFVIGGGELCKAAMEHSRLNRIIATVIHNEVDCDVFFPIDFRSSQSCLPWRKQDHSVLEAWVGSKVPQGKINENGFIYEFEMWIRDI [D24P]	-0.422 ± 0.13	-0.216 ± 0.077
MDWQKSLTLIVALTLSRGIGLKNLLPWKLKSDMMFFSRVTSGLLVTRSTGQMNVVLMGRKTWESLPAHSRPLKNRINVVISRQEVLDLGGGAYHARSLDDALALLSQIYDSTSKIQLNRVFVIGGGELCKAAMEHSRLNRIIATVIHNEVDCDVFFPIDFRSSQSCLPWRKQDHSVLEAWVGSKVPQGKINENGFIYEFEMWIRDI [D24L]	-0.0319 ± 0.13	-0.0397 ± 0.14
MDWQKSLTLIVALTLSRGIGLKYDLPWKLKSDMMFFSRVTSGLLVTRSTGQMNVVLMGRKTWESLPAHSRPLKNRINVVISRQEVLDLGGGAYHARSLDDALALLSQIYDSTSKIQLNRVFVIGGGELCKAAMEHSRLNRIIATVIHNEVDCDVFFPIDFRSSQSCLPWRKQDHSVLEAWVGSKVPQGKINENGFIYEFEMWIRDI [N23Y]	0.0916 ± 0.045	0.153 ± 0.07
MDWQKSLTLIVALTLSRGIGLKVDLPWKLKSDMMFFSRVTSGLLVTRSTGQMNVVLMGRKTWESLPAHSRPLKNRINVVISRQEVLDLGGGAYHARSLDDALALLSQIYDSTSKIQLNRVFVIGGGELCKAAMEHSRLNRIIATVIHNEVDCDVFFPIDFRSSQSCLPWRKQDHSVLEAWVGSKVPQGKINENGFIYEFEMWIRDI [N23V]	0.0151 ± 0.048	0.0776 ± 0.053
MDWQKSLTLIVALTLSRGIGLKWDLPWKLKSDMMFFSRVTSGLLVTRSTGQMNVVLMGRKTWESLPAHSRPLKNRINVVISRQEVLDLGGGAYHARSLDDALALLSQIYDSTSKIQLNRVFVIGGGELCKAAMEHSRLNRIIATVIHNEVDCDVFFPIDFRSSQSCLPWRKQDHSVLEAWVGSKVPQGKINENGFIYEFEMWIRDI [N23W]	0.126 ± 0.024	0.00408 ± 0.14
